The values that follow come from patent US12227500B2, “Substituted pyrrolo[2,3-b]pyridines for suppressing toxic endoplasmic reticulum stress” (THE TRUSTEES OF COLUMBIA UNIVERSITY IN THE CITY OF NEW YORK, priority 2018, dated 2025).

Peptide text beside a SMILES is read from it. * marks the point of attachment. Cbz = O=C(OCc1ccccc1)*; CH2F = FC*

To fix the notation:
B1: GDNF: glial cell-derived neurotrophic factor (protein, UniProt P39905 78-211, looked up)
Glial cell line-derived …: SPDKQMAVLPRRERNRQAAAANPENSRGKGRRGQRGKNRGCVLTAIHLNVTDLGLGYETKEELIFRYCSGSCDAAETTYDKILKNLSRNRRLVSDKVGQACCRPIAFDDDLSFLDDNLVYHILRKHSAKRCGCI
B2: CT1: neurotrophic factor Cardiotrophin-1 (protein, UniProt Q16619 1-201, looked up)
Cardiotrophin-1: MSRREGSLEDPQTDSSVSLLPHLEAKIRQTHSLAHLLTKYAEQLLQEYVQLQGDPFGLPSFSPPRLPVAGLSAPAPSHAGLPVHERLRLDAAALAALPPLLDAVCRRQAELNPRAPRLLRRLEDAARQARALGAAVEALLAALGAANRGPRAEPPAATASAASATGVFPAKVLGLRVCGLYREWLSRTEGDLGQLLPGGSA
B3: CNTF: ciliary neurotrophic factor (protein, UniProt P26441 1-200, looked up)
Ciliary neurotrophic factor: MAFTEHSPLTPHRRDLCSRSIWLARKIRSDLTALTESYVKHQGLNKNINLDSADGMPVASTDQWSELTEAERLQENLQAYRTFHVLLARLLEDQQVHFTPTEGDFHQAIHTLLLQVAAFAYQIEELMILLEYKIPRNEADGMPINVGDGGLFEKKLWGLKVLQELSQWTVRSIHDLRFISSHQTGIPARGSHYIANNKKM
B4: BDNF: brain-derived neurotrophic factor (protein, UniProt P23560 19-247, looked up)
Neurotrophic factor BDNF …: APMKEANIRGQGGLAYPGVRTHGTLESVNGPKAGSRGLTSLADTFEHVIEELLDEDQKVRPNEENNKDADLYTSRVMLSSQVPLEPPLLFLLEEYKNYLDAANMSMRVRRHSDPARRGELSVCDSISEWVTAADKKTAVDMSGGTVTVLEKVPVSKGQLKQYFYETKCNPMGYTKEGCRGIDKRHWNSQCRTTQSYVRALTMDSKKRIGWRFIRIDTSCVCTLTIKRGR

In the experiment the test system is Hb9::GFP-hSOD1^G93A motor neurons. The note with it: 7.5 μM CPA; best time point (24 or 48 hrs post CPA) and concentration tested.
As for `C[C@H](CCC(=O)O)[C@H]1CCC2=C3CC[C@@H]4C[C@H](O)CC[C@]4(C)[C@H]3C[C@H](O)[C@@]21C` [ApoCA], the “% rescue of CPA toxicity Cell death” value is recorded as 1.202% and the “% rescue of CPA toxicity Neurite growth” value is −4.778%.
Consider `C[C@H](CCC(=O)O)[C@H]1CC[C@H]2[C@@H]3[C@H](O)C[C@@H]4C[C@H](O)CC[C@]4(C)[C@H]3CC[C@]12C` [CDCA], for which the “% rescue of CPA toxicity Cell death” value is on record as 11.22% and the “% rescue of CPA toxicity Neurite growth” value stood at 18.22%.
With `CC[C@H](C)[C@H](NC(=O)OCc1ccccc1)C(=O)N[C@@H](CCC(=O)OC)C(=O)N[C@H](C(=O)N[C@@H](CC(=O)OC)C(=O)CF)[C@@H](C)O` [Caspase-8 inhibitor II] (Cbz-IE(OMe)TD(OMe)-CH2F), the “% rescue of CPA toxicity Cell death” value was found to be 2.17% and the “% rescue of CPA toxicity Neurite growth” value came to 45.45%.
Take `O=S(=O)(NCCNC/C=C/c1ccc(Br)cc1)c1cccc2cnccc12` [Compound H89]: the “% rescue of CPA toxicity Cell death” value is −30.1% and the “% rescue of CPA toxicity Neurite growth” value is recorded as −22.31%.
On to `C[C@H](CCC(=O)O)[C@H]1CC[C@H]2[C@@H]3CC[C@@H]4C[C@H](O)CC[C@]4(C)[C@H]3C[C@H](O)[C@]12C` [DCA], for which the “% rescue of CPA toxicity Cell death” value is listed as 20.51% and the “% rescue of CPA toxicity Neurite growth” value amounted to 33.79%.
Regarding `CC1CNCCN1S(=O)(=O)c1cccc2cnccc12.Cl.Cl` (stereo not drawn) [H-7 dihydrochloride], the “% rescue of CPA toxicity Cell death” value was found to be 65.1% and the “% rescue of CPA toxicity Neurite growth” value was determined as 86.72%.
For the molecule `Cc1cc(NC(=O)c2cccc(NC(=O)/C=C/CN(C)C)c2)ccc1Nc1nccc(-c2cccnc2)n1` [JNK-IN-8], the “% rescue of CPA toxicity Cell death” value was determined as 43.27% and the “% rescue of CPA toxicity Neurite growth” value worked out at 16.24%.
On to `Cc1ccc(/C=C2\CNC/C(=C\c3ccc(C)cc3)C2=O)cc1.Cl` [NSC632839], for which the “% rescue of CPA toxicity Cell death” value was found to be 3.129% and the “% rescue of CPA toxicity Neurite growth” value is 10.71%.
In the case of `COc1nccc(-c2c(-c3ccc(F)cc3)ncn2C2CCC(O)CC2)n1` (stereo not drawn) [SB293063], the “% rescue of CPA toxicity Cell death” value is 39.24%.
As for `C[C@H](CCC(=O)NCCS(=O)(=O)O)[C@H]1CC[C@H]2[C@@H]3CC[C@@H]4C[C@H](O)CC[C@]4(C)[C@H]3C[C@H](O)[C@]12C` [TDCA], the “% rescue of CPA toxicity Cell death” value worked out at 10.96% and the “% rescue of CPA toxicity Neurite growth” value was determined as 65.83%.
Taken in the same sequence, the figures for B1 were 28.47% and 43.14%.
Taken in the same sequence, the figures for B2 were 47.45% and 62.32%.
In the case of B3, the “% rescue of CPA toxicity Cell death” value was 27.21% and the “% rescue of CPA toxicity Neurite growth” value was 50.78%.
In the same order, the values of B4 are 12.36% and 16.59%.
